# From the RNAGym collection of RNA variant scans (doi:10.1093/nar/gkz1192)
# Read counts are not given, so values of variants with three or more changes are uncertain.
# B1: CPEB3 Ribozyme (parent)
# chain: UAACAGGGGGCCACAGCAGAAGCGUUCACGUCGCAGCCCCUGUCAGAUUCUGGUGAAUCUGCGAAUUCUGCUGUAUAUCUC
# Variants of: B1
# Experiment: self-cleavage, relative activity (ratio to wild type); higher = more cleavage; in vitro, sequencing
# In short: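 For each CPEB3 ribozyme variant, relative activity is its cleaved/total read fraction divided by the unmutated ribozyme's. Barcoded error-prone PCR libraries were transcribed by T7 RNA polymerase (5 hours, 37°C) and held in DNase I for 15 min before an EDTA stop, with cleavage occurring throughout. Template-switching reverse transcription and Illumina sequencing were used to read the RNAs. A 5-read minimum applied, and results are the mean of three batches.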
row,Variant,self-cleavage
1,A13G G19U U26C U51A A75G,0.19
2,A13G G19U U26C U54A U72C U80C,0.07
3,A13G G19U U41A,0.22
4,A13G G22A U67C,0.13
5,A13G G22C U67C U74A,0.04
6,A13G G24A A28C U43G U54C U66C,0.07
7,A13G G24A U25C U41C A57U,0.12
8,A13G G24A U26A U31C U48C,0.05
9,A13G G24A U26C U69C U76C,0.08
10,A13G G24A U31G U72C,0.14
11,A13G G24A U41C U51G A64G A65U,0.08
12,A13G G24A U54C,0.19
13,A13G G24A U66A,0.06
14,A13G G24C A56G A77G,0.12
15,A13G G24C C38U A56U U78C,0.17
16,A13G G30A A35U U74A,0.13
17,A13G G30A A65U,0.11
18,A13G G30A U31C U58C U66C,0.08
19,A13G G30C A35U U41C U54C C71A U78C,0.05
20,A13G G30C A56G A57U,0.07
21,A13G G30U A45G,0.22
22,A13G G30U U60A A75U,0.11
23,A13G G33A A45G U66C U80C,0.09
24,A13G G33A G55C U72A,0.04

row,Variant,self-cleavage
1,A13G G33A U49C U60A,0.17
2,A13G G33A U49C U60A G63A U76C,0.08
3,A13G G33A U49C U60A U80G,0.04
4,A13G G33A U54C U72C U78A,0.15
5,A13G G33C U49A G53U U72C A75G,0.07
6,A13G G33U U41A A64G U69C,0.15
7,A13G G33U U48C A75U,0.13
8,A13G G36A U41C,0.37
9,A13G G36U A47G,0.11
10,A13G G36U U41A G55U U58C,0.14
11,A13G G42A U54C U72A,0.15
12,A13G G42U A65G,0.17
13,A13G G42U U67C,0.09
14,A13G G46U U48C U80C,0.09
15,A13G G46U U60C U69C,0.12
16,A13G G52A A56G,1.04
17,A13G G52A U72G U78C,0.6
18,A13G G53C U78A,1.05
19,A13G G55U U58C,0.12
20,A13G G61C A77G,0.22
21,A13G G63U U72C,0.98
22,A13G G73A U74C A75G,1.14
23,A13G U25A A28G C40U A47G G63A,0.21
24,A13G U25A A35U,0.46

row,Variant,self-cleavage
1,A13G U25A A75G U76A,0.34
2,A13G U25A C32U U60A,0.17
3,A13G U25A C34G U60G U69A A75U,0.12
4,A13G U25A C59G,0.08
5,A13G U25A U49G C50G,0.17
6,A13G U25A U51G U78C,0.09
7,A13G U25A U60A A64G U78A,0.09
8,A13G U25A U67C A77G,0.11
9,A13G U25C A28G,0.35
10,A13G U25C A35G A45G U69A U72C U80A,0.06
11,A13G U25C A35G U48A U66C,0.22
12,A13G U25C A35G U60C U69A,0.05
13,A13G U25C A45C,0.09
14,A13G U25C A45G A57U U72C,0.1
15,A13G U25C A47C U48C U60A U69C A77G,0
16,A13G U25C A47G A75U,0.15
17,A13G U25C A57G U72C U78C,0.44
18,A13G U25C A64U,0.18
19,A13G U25C A65G U69A,0.06
20,A13G U25C A65U A75U,0.08
21,A13G U25C A77G U78C,0.1
22,A13G U25C C29U U43C U80C,0.29
23,A13G U25C C32A C37A U49C,0.19
24,A13G U25C C37A C39A U48C,0.23

row,Variant,self-cleavage
1,A13G U25C C37U C62U G70C U78C,0.05
2,A13G U25C C37U G70C U78C,0.09
3,A13G U25C C68G,0.18
4,A13G U25C G36A G52A U67C U76A,0.11
5,A13G U25C G52U,0.11
6,A13G U25C U26A A45G U51A,0.12
7,A13G U25C U26C A35G C79U,0.13
8,A13G U25C U26C A65G U67C,0.08
9,A13G U25C U26C G53A A64G,0.32
10,A13G U25C U26C U31A C68G U78C,0.1
11,A13G U25C U31A C39U U48C A64U A65G,0.06
12,A13G U25C U31C U58C,0
13,A13G U25C U41A U43C U66G,0.21
14,A13G U25C U41A U60C U76C,0.15
15,A13G U25C U41C A65G U78C,0.06
16,A13G U25C U41C U43C A56U U80C,0.35
17,A13G U25C U49C G52U,0.21
18,A13G U25C U51A A77G,0.21
19,A13G U25C U58A U69C U78C,0.05
20,A13G U25C U66A U72C,0.35
21,A13G U25C U72C U78C,0.23
22,A13G U25C U72C U80A,0.08
23,A13G U25C U76A U78C,0.11
24,A13G U25C U80C,0.59

row,Variant,self-cleavage
1,A13G U25G C32A A57G,0.11
2,A13G U25G U43C,0.25
3,A13G U26A A28G A64U U80A,0.13
4,A13G U26A A28G U49C A64U U72C,0.04
5,A13G U26A A28U G33A U54G G63C,0.28
6,A13G U26A A35G,0.74
7,A13G U26A A45G A57U U66C U72C,0.18
8,A13G U26A A64G A75C A77U,0.74
9,A13G U26A A64U U74C,0.1
10,A13G U26A A65G U72C,0.14
11,A13G U26A U31C C68G A75G U78C,0.05
12,A13G U26A U43A A47C U49G U67C U69C,0.21
13,A13G U26A U49C U78A,0.45
14,A13G U26A U60C,0.18
15,A13G U26A U67C U72A U74C A75G,0.13
16,A13G U26A U72A,0.16
17,A13G U26A U72C,0.64
18,A13G U26C A28U A57G,0
19,A13G U26C A35G A45U U60C U72C,0.13
20,A13G U26C A35G A75U,0.57
21,A13G U26C A35G U78C,0.51
22,A13G U26C A45G C79A,0.37
23,A13G U26C A45U U66A U69A,0.14
24,A13G U26C A47G U51C A57G U60C,0.32

row,Variant,self-cleavage
1,A13G U26C A65G,0.25
2,A13G U26C C32A U48C G61U,0.18
3,A13G U26C C34U,0.5
4,A13G U26C C37A U43C,0.23
5,A13G U26C C38U A45C A57G U80C,0.06
6,A13G U26C C39G U41A A47U U69G,0.05
7,A13G U26C C62U A64U,0.24
8,A13G U26C G33A U58C A75U,0.24
9,A13G U26C G36U G52A,0.14
10,A13G U26C U31A A47C U72C,0.13
11,A13G U26C U31C,0.25
12,A13G U26C U31C G55A A57U U78C,0.14
13,A13G U26C U31C U80A,0.09
14,A13G U26C U31G A45G U72C,0.33
15,A13G U26C U41C U48C A56U U72C,0.27
16,A13G U26C U48C U72C,0.14
17,A13G U26C U49A U51A U69C,0.29
18,A13G U26C U54C U58A U72C,0.07
19,A13G U26C U54C U58C U80C,0.23
20,A13G U26C U54C U74A,0.7
21,A13G U26C U54G,0.48
22,A13G U26C U58C A77U,0.09
23,A13G U26C U60C A64G U72C,0.09
24,A13G U26C U67A C81U,0.12

row,Variant,self-cleavage
1,A13G U26C U69A,0.23
2,A13G U26C U69A U80A,0.23
3,A13G U26C U69C,0.06
4,A13G U26C U72C,0.45
5,A13G U26C U74C,0.47
6,A13G U26G C40U,0.08
7,A13G U26G C40U A57G U80C,0.27
8,A13G U26G C50U U51C A65G U76C,0.04
9,A13G U26G U48C U51A,0.31
10,A13G U31A A65U,0.34
11,A13G U31A C38U U49C,0.07
12,A13G U31A C62U A64G,0.24
13,A13G U31A G70U,0.42
14,A13G U31A U49C A65G U80A,0.09
15,A13G U31A U58C U72C,0.23
16,A13G U31A U60A U72A U78A,0.11
17,A13G U31A U76A,0.71
18,A13G U31A U78G,0.59
19,A13G U31C A35U U43C U58A,0.09
20,A13G U31C A65G,0.2
21,A13G U31C A65U U66A,0.15
22,A13G U31C C38U U67A A77G,0.13
23,A13G U31C C44U U66C U78C,0.17
